# The whole screen tested about 410,000 compounds, of which about 6,400 (1.6%) were called active. The inconclusive results got no clear call from the source; some entries with a clear call stand among them for comparison. The call rests on the fitted dose curve; in most records, active means well fitted inhibition curve with a large enough effect; inconclusive means small, poorly fitted or top-dose-only effect; inactive means no such curve, though single readings can be large or run the other way. Potencies of inconclusive entries are left out as doubtful fits.
# Molecular target: Glucagon-like peptide 1 receptor (Homo sapiens) (UniProt P43220)
# Sequence of UniProt P43220 (P43220 whole entry, looked up): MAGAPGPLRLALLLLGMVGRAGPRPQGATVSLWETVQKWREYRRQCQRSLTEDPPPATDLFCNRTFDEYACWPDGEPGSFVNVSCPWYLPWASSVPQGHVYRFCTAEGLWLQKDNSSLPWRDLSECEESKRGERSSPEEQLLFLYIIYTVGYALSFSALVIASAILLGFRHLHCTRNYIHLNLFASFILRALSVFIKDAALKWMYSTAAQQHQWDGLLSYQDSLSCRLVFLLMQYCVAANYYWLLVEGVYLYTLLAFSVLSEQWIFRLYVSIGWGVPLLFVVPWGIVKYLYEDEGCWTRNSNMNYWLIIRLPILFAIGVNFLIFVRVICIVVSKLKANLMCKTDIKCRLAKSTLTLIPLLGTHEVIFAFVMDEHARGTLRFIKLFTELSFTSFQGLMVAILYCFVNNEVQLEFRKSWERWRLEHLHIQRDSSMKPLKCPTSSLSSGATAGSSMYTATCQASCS
# Assay: qHTS of GLP-1 Receptor Inverse Agonists (Inhibition Mode); further: nearly all actives have a fitted effect of over 55% in size
# Details: HEK293 GLP-1R CRE-luciferase, luminescence, 24 h, GLP-1R form is constitutively active; activity change, negative = inhibition: at 38.3 µM (top of the series) unless noted
# In short: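 Inverse agonists were sought by their lowering of basal cAMP reporter luciferase output in HEK293 cells stably carrying constitutively active human GLP-1R, after 24 h compound treatment.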
# On the % scale 0 is the no-effect control and ±100 the full control effect; potency means the concentration at half of the fitted maximal effect; tags describe the fitted curve by direction and shape.
Structure (SMILES),Potency,"activity change, negative = inhibition"
Cc1cc(C)nc(-n2nc(C)cc2Nc2ccccc2)n1,"inconclusive [inhibitor, full curve, poor fit]",
O=C(NNC(=O)c1ccccc1Cl)c1ccncc1,,inactive: 10.9%
CC1CCN(S(=O)(=O)c2ccc(NC(=O)c3ccccc3F)cc2)CC1,"inconclusive [inhibitor, single point]",
CCN(CC)C(=O)c1sc2nc(N3CCOCC3)c3c(c2c1N)CCCC3,,inactive: 0%
O=C(CC(Nc1cccc(Cl)c1Cl)C(=O)OCC(=O)c1cccs1)c1ccccc1 (stereo unspecified),"inconclusive [inhibitor, partial curve, poor fit]",
CC(=O)Nc1cccc(OCC(=O)/C=C2\N(C)c3ccccc3C2(C)C)c1,"inconclusive [inhibitor, partial curve, poor fit]",
Cc1cc(C)c(OCCCCCn2ccnc2)c(C)c1,"inconclusive [inhibitor, partial curve, poor fit]",
O=C(NCCCN1CCCC1)c1cc2c(Cl)nc3ccccc3c2s1,"inconclusive [inhibitor, partial curve, poor fit]",
C[C@H]1CN([C@@H](C)CO)C(=O)Cc2cc(NC(=O)C3CC3)ccc2O[C@H]1CN(C)Cc1ccc(Oc2ccccc2)cc1,active: 10 µM,
COc1ccccc1OCC(=O)Nc1sc2c(c1C(N)=O)CCC2,,inactive: 0.143%
COc1ccc(-c2ccc(CNc3ccc4[nH]c(=O)[nH]c4c3)o2)cc1Cl,"inconclusive [inhibitor, single point]",
CC1Cc2cc(S(=O)(=O)N3CCC(C(=O)N4CCN(c5ccccc5F)CC4)CC3)ccc2N1C(=O)C1CC1 (stereo unspecified),"inconclusive [inhibitor, single point]",
O=C(NCC(c1cccs1)N1CCOCC1)c1cc(F)cc(F)c1 (stereo unspecified),"inconclusive [inhibitor, single point]",
COc1ccc(NC(=O)CN(C)C2CCCCC2)cc1Cl,"inconclusive [inhibitor, partial curve, poor fit]",
CCCCNC(=O)N(C)c1nncnc1C(=O)NC,"inconclusive [inhibitor, partial curve, poor fit]",
c1ccc(-c2nc(-c3ccccn3)nc(-c3ccccn3)n2)nc1,"inconclusive [inhibitor, single point]",
c1ccc(Cn2nc(-c3ccccc3)nc2-c2ccccc2)cc1,"inconclusive [inhibitor, single point]",
CC1(c2ccc([N+](=O)[O-])cc2)NC(=O)N(CC(=O)Nc2ccc(N3CCCCC3)cc2)C1=O (stereo unspecified),"inconclusive [inhibitor, partial curve, poor fit]",
O=C(c1ccccc1)c1ccc2ccccc2n1,"inconclusive [inhibitor, single point]",
Cc1ccc(C)c(N(Cc2cc3ccc(C)cc3[nH]c2=O)C(=O)c2ccco2)c1,"inconclusive [inhibitor, partial curve, poor fit]",
CCC1CN(S(=O)(=O)c2cc(-c3cc(C)no3)ccc2OC)c2cc(C)ccc2O1 (stereo unspecified),"inconclusive [inhibitor, single point]",
CCN1C(=NCC2CC2)N[C@@H](c2cccc(C(F)(F)F)c2)C(C(=O)OC)=C1C,"inconclusive [inhibitor, single point]",

Structure (SMILES),Potency,"activity change, negative = inhibition"
Cc1ccc(C(C)C)c(OCCNC(=O)c2cncc(Br)c2)c1,active: 10 µM,
Cc1nn(C)c(C(=O)NC(=S)Nc2ccccc2Br)c1Cl,,inactive: 7.23%
Cc1cccc(NC(=O)COC(=O)c2ccc(C)c(S(=O)(=O)N3CCCCC3)c2)c1,"inconclusive [inhibitor, partial curve, poor fit]",
CC(C)CCNC(=O)COc1ccc(C(=O)c2ccccc2)cc1,"inconclusive [inhibitor, partial curve, poor fit]",
COc1ccccc1NC(=O)C1=C(C)N(c2ccccc2)C(=S)NC1c1cccc(C(F)(F)F)c1 (stereo unspecified),"inconclusive [inhibitor, single point]",
O=Cc1cnc2ccccc2c1-c1ccccc1,"inconclusive [inhibitor, single point]",
COc1ccc(OC)c(NC(=O)Nc2nc(C(N)C(C)C)cs2)c1 (stereo unspecified),"inconclusive [inhibitor, single point]",
CCCCC1C(C#N)=C(C)NC2=C1C(=O)CC(C)(C)C2 (stereo unspecified),"inconclusive [inhibitor, partial curve, poor fit]",
Cc1cc2cc(C)c(NCCNC(=O)c3cccc(F)c3)nc2cc1C,"inconclusive [inhibitor, single point]",
Cn1ccc(NC(=O)Nc2cccc(C(F)(F)F)c2)n1,"inconclusive [inhibitor, single point]",
CCSc1nnc(Nc2ccccc2)s1,,inactive: 9.67%
CC(C)CNC(=O)C1(C)CCN1C(=O)c1ccc(C(C)(C)C)cc1 (stereo unspecified),,inactive: -19%
CCSc1nc2ccccc2c(=O)n1C1CCOC(C)(C)C1 (stereo unspecified),"inconclusive [inhibitor, single point]",
COc1ccc(C2=Nc3ccccc3N(C(=O)c3ccc(C(F)(F)F)cc3)C2C(=O)NCc2ccccc2)cc1 (stereo unspecified),active: 6.31 µM,
Cc1nn(Cc2ccccc2)c(C)c1NC(=O)CCCn1nc(C)c([N+](=O)[O-])c1C,"inconclusive [inhibitor, single point]",
Clc1ncc(CN2CCN(c3ccccc3)CC2)s1,,inactive: 9.53%
CC12CC(NC(=O)N1c1cccc(C(=O)N3CCN(c4ccccc4F)CC3)c1)c1ccccc1O2 (stereo unspecified),"inconclusive [inhibitor, partial curve, poor fit]",
Cc1nc2c(-c3ccc(F)cc3)c(C)nn2c(C)c1CCC(=O)N1CCC(Cc2ccccc2)CC1,"inconclusive [inhibitor, partial curve, poor fit]",
COc1ccc(NS(=O)(=O)c2cc(NC(=O)C3CCCO3)ccc2N2CCCCC2)cc1 (stereo unspecified),"inconclusive [inhibitor, partial curve, poor fit]",
CCSc1nc(O)cc(=O)n1-c1ccc(OC)cc1,"inconclusive [inhibitor, partial curve]",
COC(=O)c1c(C)oc(C)c1S(=O)(=O)N1CCCCC1,,inactive: -16.5%
FC(F)(F)c1ccccc1Cc1c(C2CCCCC2)nc2ccc(Br)cn12,"inconclusive [inhibitor, partial curve]",

Structure (SMILES),Potency,"activity change, negative = inhibition"
CC(C)N=C(NC#N)SCc1ccccc1F,,inactive: 6.09%
COc1ccc(CCNC(=O)C2=C(C)C(=O)OC23CCCCC3)c(OC)c1OC,,inactive: -5.83%
C/C(=N\N1CCN(Cc2ccc(Cl)cc2)CC1)c1ccc([N+](=O)[O-])cc1,"inconclusive [inhibitor, partial curve]",
CCN(CC)S(=O)(=O)c1ccc2c(c1)nc(CN(C)C(=O)c1cccc(Cl)c1)n2C,,inactive: 13.4%
C=C(C)COc1ccc2c(C)c(CC(=O)N3C[C@H]4C[C@@H](C3)c3cccc(=O)n3C4)c(=O)oc2c1,,inactive: -6.66%
OCCC1CN(Cc2nc(-c3ccc(F)cc3)cs2)CCN1CCc1ccccc1 (stereo unspecified),"inconclusive [inhibitor, partial curve, poor fit]",
CC1CCN(S(=O)(=O)c2ccc3c(c2)N(CC(=O)NCCCN2CCCCC2C)C(=O)CS3)CC1 (stereo unspecified),"inconclusive [inhibitor, single point]",
O=C(CSCc1ccc(Cl)cc1)N1CCCCC1,"inconclusive [inhibitor, single point]",
CCc1nnc(NC(=O)c2ccc(S(=O)(=O)N(C)Cc3ccccc3)cc2)o1,"inconclusive [inhibitor, partial curve, poor fit]",
O=C(CCCCn1c(=O)c2ccccc2n(CC(=O)NC2CCCC2)c1=O)NC1CCCC1,,inactive: 2.98%
COc1ccccc1NC(=O)CC(=O)c1ccccc1,,inactive: 7.2%
COc1cccc(N2CCN(C(=O)c3cccc(NC(=O)c4nsc5ccccc45)c3)CC2)c1,"inconclusive [inhibitor, single point]",
CCCCc1nc(SCC(=O)Nc2cc(C)on2)n[nH]1,,inactive: -29.1%
COc1cc(Cl)ccc1OCc1cc(C(=O)NCC(C)c2ccccc2)no1 (stereo unspecified),"inconclusive [inhibitor, full curve]",
COc1ccccc1C1CC(c2cccs2)=Nc2ccccc2S1 (stereo unspecified),"inconclusive [inhibitor, partial curve, poor fit]",
Cc1ccccc1S(=O)(=O)NC(=O)C1(C)CCN1C(=O)C(C)(C)c1ccccc1 (stereo unspecified),"inconclusive [inhibitor, partial curve, poor fit]",
Cc1ccc(C)c(NC(=O)CSc2nc(=O)n(CCN(C)C)c3c2CCC3)c1,,inactive: 7.42%
OC(COCc1ccc(Cl)cc1)CN1CCc2ccccc2C1 (stereo unspecified),"inconclusive [inhibitor, partial curve, poor fit]",
S=C(N/N=C/c1ccc(Cl)cc1)N1CCOCC1,,inactive: -0.525%
CN(C)S(=O)(=O)c1cc(NC(=O)COC(=O)CC2CC3CCC2C3)ccc1Cl (stereo unspecified),"inconclusive [inhibitor, partial curve]",
C=CCNCCCOc1ccc(C(C)(C)c2ccccc2)cc1,"inconclusive [inhibitor, partial curve, poor fit]",
O=C1CN(C(=O)c2ccccc2Br)C(c2ccc(F)cc2)c2cc(F)ccc2N1 (stereo unspecified),"inconclusive [inhibitor, single point]",

# Reference: PubChem BioAssay AID624417 (National Center for Advancing Translational Sciences (NCATS), 2012)
